Measured values from publication PMC4336329 (PLoS ONE, 2015).
Screen size: about 310,000 compounds; about 2,200 (0.71%) showed an effect of 50% or more. Effects have a minus sign here. The list shows a part of the results.

Target: human ether-à-go-go-related gene (hERG) potassium channel (human, UniProt Q12809)
Experiment: primary screen, population patch clamp on CHO cells stably expressing hERG

human ether-à-go-go-related gene (hERG) potassium channel, sequence (Q12809 whole entry, looked up): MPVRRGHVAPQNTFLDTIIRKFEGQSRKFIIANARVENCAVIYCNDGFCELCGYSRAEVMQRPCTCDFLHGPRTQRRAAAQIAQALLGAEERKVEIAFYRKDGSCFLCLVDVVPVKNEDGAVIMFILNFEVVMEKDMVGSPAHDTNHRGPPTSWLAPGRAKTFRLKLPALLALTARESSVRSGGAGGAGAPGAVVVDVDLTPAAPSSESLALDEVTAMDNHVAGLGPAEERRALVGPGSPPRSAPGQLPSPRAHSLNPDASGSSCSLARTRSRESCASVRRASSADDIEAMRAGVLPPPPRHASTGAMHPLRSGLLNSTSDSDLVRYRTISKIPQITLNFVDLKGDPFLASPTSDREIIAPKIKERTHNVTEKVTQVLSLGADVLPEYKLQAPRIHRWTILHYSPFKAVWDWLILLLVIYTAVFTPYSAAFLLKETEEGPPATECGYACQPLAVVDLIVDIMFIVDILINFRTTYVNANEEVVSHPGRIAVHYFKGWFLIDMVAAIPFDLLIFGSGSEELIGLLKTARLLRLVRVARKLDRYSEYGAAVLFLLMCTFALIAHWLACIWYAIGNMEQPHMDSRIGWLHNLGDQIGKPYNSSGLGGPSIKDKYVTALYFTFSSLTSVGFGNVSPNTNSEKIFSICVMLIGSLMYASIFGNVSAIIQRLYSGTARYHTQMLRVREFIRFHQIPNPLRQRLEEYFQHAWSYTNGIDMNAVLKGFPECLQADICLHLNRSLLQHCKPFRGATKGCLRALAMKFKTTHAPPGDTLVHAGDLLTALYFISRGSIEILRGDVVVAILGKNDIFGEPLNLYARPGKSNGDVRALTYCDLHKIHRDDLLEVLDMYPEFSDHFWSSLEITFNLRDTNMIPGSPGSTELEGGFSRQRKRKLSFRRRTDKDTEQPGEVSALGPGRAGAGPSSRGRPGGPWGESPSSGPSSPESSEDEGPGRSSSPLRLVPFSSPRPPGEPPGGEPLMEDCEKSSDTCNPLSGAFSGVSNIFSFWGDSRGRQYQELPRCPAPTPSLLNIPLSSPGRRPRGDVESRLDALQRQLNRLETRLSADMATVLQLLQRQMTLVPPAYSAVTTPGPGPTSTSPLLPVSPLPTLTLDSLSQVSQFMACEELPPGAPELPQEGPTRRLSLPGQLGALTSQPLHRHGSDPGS

Row | Compound | hERG current change (%, negative = inhibition) at 1uM
1 | O=C(Cn1nnc(-c2ccccc2F)n1)Nc1ccc(C(=O)N2CCOCC2)cc1 | -0.348%
2 | COc1cc(NS(=O)(=O)c2ccc(NC(=S)NC(=O)COc3ccccc3OC)cc2)nc(OC)n1 | 3.81%
3 | COc1ccccc1NNC(=O)c1cc(C(C)(C)C)nn1Cc1ccccc1 | -4.72%
4 | CN1CCN(c2ccc(Cl)cc2NC(=O)c2ccc(S(=O)(=O)N3CCCCCC3)cc2)CC1 | 12.3%
5 | COc1cc(/C=N/NC(=O)c2cccc(S(=O)(=O)N3CCCC3)c2)cc(OC)c1O | 11.8%
6 | CC(=O)c1cccc(NS(=O)(=O)c2cc(OCC(N)=O)c(C)cc2Cl)c1 | 5.36%
7 | COc1cc(/C=N/NC(=O)c2ccc3nc[nH]c3c2)ccc1O | 7.6%
8 | COc1ccc(CC(=O)O/N=C(\N)Cc2ccc(OC)cc2)cc1 | 5.29%
9 | Cc1ccc(C(=O)Nc2ccc(C(=O)N/N=C/c3ccccn3)cc2)cc1 | 14.6%
10 | Cc1ccc(S(=O)(=O)N(C)/N=C2/C(=O)N(CC(=O)O)c3ccccc32)cc1 | 14%
11 | Cc1cccc2sc(NC(=O)CCn3cccc3)nc12 | 16.2%
12 | Cc1cc(OC2CCCCC2)nc(NCc2ccccc2)n1 | 9.71%
13 | O=C1OC(c2ccc(Cl)cc2)=C/C1=C/c1cccnc1 | 15.8%
14 | CCCCCN(C(=O)CCC(=O)OCc1ccc(Cl)cc1Cl)c1c(N)n(CCCC)c(=O)[nH]c1=O | -7.18%
15 | C/C(=N\Oc1cccc(F)n1)c1ccc(Cl)cc1Cl | 16%
16 | COCCCNC(=O)CCc1c(C)nc2c(c(C)nn2-c2ccccc2)c1C | 8.19%
17 | COc1cccc(/C=N/NC(=O)c2ccc(=O)[nH]n2)c1O | 12.3%
18 | Cc1ccccc1OCC(=O)OCC(=O)c1ccc(OCc2ccccc2)cc1 | 14%
19 | CC1CC(C)(C)NC(=S)N1CC(=O)N1CCN(Cc2ccccc2)CC1 (stereo not shown) | 11.6%
20 | COc1ccc(-c2nc(NC(=O)c3ccccc3)sc2-c2ccc([N+](=O)[O-])cc2)cc1 | 8.19%
21 | CN(C)CCCNc1nc2sc3c(c2c(=O)n1CCc1ccccc1)CCCCC3 | 12.3%
22 | CCC(C)NC(=O)c1ccccc1NC(=O)c1ccccc1N(C)S(C)(=O)=O (stereo not shown) | 0.0328%

Row | Compound | hERG current change (%, negative = inhibition) at 1uM
23 | CC(C)(C)CC(C)(C)NC(=O)c1ccccc1 | 10.4%
24 | Cc1c(C(N)=O)c(-c2ccccc2)nn1-c1ccccc1 | -5.91%
25 | Cc1ccc(OCC(O)CN2CCN(CC(O)COC(C)C)CC2)c(C(C)(C)C)c1 (stereo not shown) | -47.8%
26 | CCOC(=O)N1CCN(S(=O)(=O)c2cn(C)c(=O)n(C)c2=O)CC1 | 14.6%
27 | O=C(NC(=S)NC1CCS(=O)(=O)C1)c1cccc([N+](=O)[O-])c1 (stereo not shown) | 12.8%
28 | O=C(NC(=S)N1CCc2ccccc21)c1ccc(Br)o1 | 14.2%
29 | O=C(CCCCCN1C(=O)CCC1=O)NCc1ccccc1 | 7.79%
30 | NC(=O)c1ccc(-c2nnn(CC(=O)N(C3CCCC3)C3CCS(=O)(=O)C3)n2)cc1 (stereo not shown) | 2.21%
31 | CCCc1cc(=O)[nH]c(SCC(=O)N(C)Cc2ccccc2)n1 | 7.92%
32 | O=S(=O)(Nc1ccc(Cl)cc1)c1ccc(N2CCOCC2)c(NC(=S)NC2CC2)c1 | 18.8%
33 | C=C(C)CNC(=S)N1CCNC(=O)C1CC(=O)OC (stereo not shown) | 16%
34 | CCOC(=O)c1c(NC(=O)COC(=O)Cn2c(C(F)(F)F)nc3ccccc32)sc(C)c1C | 3.9%
35 | Cc1nn(CC(=O)Nc2ccc3c(c2)nc(CCN2CCCCC2)n3C)c(=O)c2ccccc12 | -7.84%
36 | Cc1cccc(NC(=S)N2CCC(c3nc4ccccc4o3)CC2)c1 | 5.83%
37 | O=C(OCC(=O)N1CCc2ccccc21)c1n[nH]c(=O)c2ccccc12 | 18.1%
38 | COC(=O)c1cc(OC)c(OC)cc1NC(=O)C1CCCO1 (stereo not shown) | -5%
39 | c1ccc(-n2ccnc2)cc1 | 15.2%
40 | CCCc1n[nH]c2c1/C(=N\O)CCC2 | 15.7%
41 | O=C(COC(=O)c1ncc(Cl)c(Cl)c1Cl)NC1CCCCCC1 | 13.8%
42 | CCCC(=O)OCC(=O)Nc1ccc2c(c1)OCO2 | 14.4%
43 | CCN(CC(=O)NCc1ccc(F)cc1)CC(=O)NC1CCCC1 | 8.36%
